# Data taken from publication PMC10411568.
# No constants are given. Whether binding was seen depends on the method and setting. For some assays here: In cells and extracts the contact can be indirect. Some binding calls cover weakened binding; strength is not graded here. For some assays here: Tags and fused reporters may be left off the sequences shown.
# T1: GST-RAP1 (human) (UniProt Q9NYB0)
# T1 sequence: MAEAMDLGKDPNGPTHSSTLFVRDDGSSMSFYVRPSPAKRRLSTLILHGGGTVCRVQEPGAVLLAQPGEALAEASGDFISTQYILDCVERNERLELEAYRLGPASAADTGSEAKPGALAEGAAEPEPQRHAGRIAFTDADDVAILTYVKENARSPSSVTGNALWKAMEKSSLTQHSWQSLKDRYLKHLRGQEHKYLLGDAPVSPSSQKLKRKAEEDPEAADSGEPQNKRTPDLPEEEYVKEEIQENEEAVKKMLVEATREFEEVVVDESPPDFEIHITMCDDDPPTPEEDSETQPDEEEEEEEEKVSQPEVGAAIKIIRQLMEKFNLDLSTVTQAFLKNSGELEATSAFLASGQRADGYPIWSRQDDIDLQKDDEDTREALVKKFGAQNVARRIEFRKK
# T2: Full-length human RAP1 fused to the Gal4p DNA binding domain (pDBLeu/RAP1) (human) (UniProt Q9NYB0)
# T2 sequence: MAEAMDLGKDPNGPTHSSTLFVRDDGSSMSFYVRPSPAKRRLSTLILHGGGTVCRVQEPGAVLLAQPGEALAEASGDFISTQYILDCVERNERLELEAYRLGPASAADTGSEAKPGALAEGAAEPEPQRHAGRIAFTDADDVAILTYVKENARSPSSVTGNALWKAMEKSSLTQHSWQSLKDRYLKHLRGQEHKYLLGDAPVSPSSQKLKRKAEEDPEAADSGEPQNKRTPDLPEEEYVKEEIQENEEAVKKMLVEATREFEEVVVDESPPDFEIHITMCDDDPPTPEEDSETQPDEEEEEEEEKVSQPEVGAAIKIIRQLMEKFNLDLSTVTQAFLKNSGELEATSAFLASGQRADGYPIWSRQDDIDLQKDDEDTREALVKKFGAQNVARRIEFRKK
# What was measured:
# GST-RAP1 (human) [1] = target: T1, GST-RAP1 (human); assay: pull-down; Fig. 2b and Fig. 2c lanes 1, 4, 6: GST- and His6-tagged proteins expressed together in HMS174(DE3), lysed with 1% NP-40; lysates mixed with glutathione beads; blot for the tags
# GST-RAP1 (human) [2] = target: T1, GST-RAP1 (human); assay: pull-down; Fig. 2a, lanes 8 and 10: glutathione beads prebound with GST-RAP1 incubated with a purified His6-GFAP protein and purified MBP-PS1(1–85) together; both purified
# GST-RAP1 (human) [3] = target: T1, GST-RAP1 (human); assay: pull-down; Fig. 2a, one added protein: purified MBP-PS1(1–85) or His6-GFAP protein added to glutathione beads prebound with GST-RAP1 (from lysate); proteins from BL21 and BL21(DE3); blot for the tags; both purified
# [4] = target: T2, Full-length human RAP1 fused to the Gal4p DNA binding domain (pDBLeu/RAP1) (human); assay: two-hybrid; ProQuest Two-Hybrid System, MaV203 cells; GAL4DBD-RAP1 bait against a human fetal brain cDNA library in pPC86; selection on SC-leu-trp-his with 3AT and blue colour with X-gal; library plasmids retested with the bait
# GST-RAP1 (human) [5] = target: T1, GST-RAP1 (human); assay: condition: only with MBP-PS1(1–85) in the same sample (Fig. 2a); pull-down; Fig. 2a, lanes 8 and 10: glutathione beads prebound with GST-RAP1 incubated with a purified His6-GFAP protein and purified MBP-PS1(1–85) together; both purified
# GST-RAP1 (human) [6] = target: T1, GST-RAP1 (human); assay: pull-down; Fig. 2c, samples with three proteins: the co-expressed GST- and His6-tagged pair (HMS174(DE3)) on glutathione beads in the presence of a third protein that was expressed separately and added
# GST-GFAPɛ (human) = GST-GFAPɛ (human) (UniProt P14136); assay: pull-down; Fig. 2c lane 8: MBP-PS1(1–85) expressed separately in HMS174(DE3), added to GST-GFAPɛ on glutathione beads
# [7] = target: GAL4DBD-GFAPα CT fusion (GFAPα 204–432) (human) (UniProt P14136); assay: two-hybrid; Matchmaker Gold, Y2H Gold cells; GAL4DBD-GFAP fusions with GAL4AD-RAP1; growth on SC-leu-trp-his-ade, 3 days at 30°C, three independent transformants
# [8] = target: GAL4DBD-GFAPɛ CT fusion (GFAPɛ 204–431) (human) (UniProt P14136); assay: as above
molecule,measurement,setting,value
His6-GFAPα (amino acids 204—end) (from UniProt P14136-1 204-432) (domain or fragment),binding,GST-RAP1 (human) [1],no binding
same,binding,GST-RAP1 (human) [2],no binding
same,binding,GST-RAP1 (human) [3],no binding
"GFAPɛ fragment amino acids 204–431, Gal4p activation domain fusion from the human fetal brain cDNA library (from UniProt P14136-3 204-431) (domain or fragment)",binding,[4],binds
His6-GFAPɛ (amino acids 204—end) (from UniProt P14136-3 204-431) (domain or fragment),binding,GST-RAP1 (human) [5],no binding
same,binding,GST-RAP1 (human) [1],binds
same,binding,GST-RAP1 (human) [6],binds
same,binding,GST-RAP1 (human) [3],binds
MBP-PS1(1–85) (from UniProt P49768 1-85) (domain or fragment),binding,GST-GFAPɛ (human),binds
"GAL4AD-RAP1 fusion (protein, UniProt Q9NYB0 1-399) MAEAMDLGKDPNGPTHSSTLFVRDDGSSMSFYVRPSPAKRRLSTLILHGGGTVCRVQEPGAVLLAQPGEALAEASGDFISTQYILDCVERNERLELEAYRLGPASAADTGSEAKPGALAEGAAEPEPQRHAGRIAFTDADDVAILTYVKENARSPSSVTGNALWKAMEKSSLTQHSWQSLKDRYLKHLRGQEHKYLLGDAPVSPSSQKLKRKAEEDPEAADSGEPQNKRTPDLPEEEYVKEEIQENEEAVKKMLVEATREFEEVVVDESPPDFEIHITMCDDDPPTPEEDSETQPDEEEEEEEEKVSQPEVGAAIKIIRQLMEKFNLDLSTVTQAFLKNSGELEATSAFLASGQRADGYPIWSRQDDIDLQKDDEDTREALVKKFGAQNVARRIEFRKK",binding,[7],no binding
same,binding,[8],binds
